Inconclusive means that the source gave no clear call. Such entries were picked first, then a sample of the others. Potencies beside an inconclusive call are fits to weak or partial responses and may not hold up. The source made the active and inactive calls. Calls come from the whole dose curve; as a rule, active = well fitted inhibition curve with a large enough effect; inconclusive = small, poorly fitted or top-dose-only effect; inactive = no such curve, though single readings can be large or run the other way.
These compounds were tested against Retinaldehyde dehydrogenase 3 (Homo sapiens) (UniProt P47895) (assay: qHTS for Inhibitors of the Aldehyde Dehydrogenase Family (ALDH1A3) Primary screen (AID 2061315;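 for activity change, negative = inhibition: plate controls were DMSO vehicle for no effect and reference inhibitor for full effect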)). Settings: ALDH inhibition qHTS; activity change, negative = inhibition: at 56 µM (top of the series) unless noted.
In the case of Cc1ccc(C)c(SC2=NS(=O)(=O)c3cc(C(=O)NCc4ccccc4)ccc32)c1, the Potency is reported as inconclusive: 1 µM [inhibitor, full curve, poor fit].
For Cc1cc(C)nc(NC(=S)N2CCN(c3nsc4ccccc34)CC2)c1, the Potency was “inactive”.
Fc1ccccc1-c1nc(-c2ccccc2)no1 was tested, and the Potency was inconclusive: 7.94 µM [inhibitor, partial curve].
In the case of COc1ccc(S(=O)(=O)N2CCN(C(=O)C3COc4ccccc4O3)CC2)cc1 (stereo not given), the Potency is reported as “inactive”.
In the case of CC1(C)C(O)CCC2(C)C1C(O)C=C1COC(=O)C12O (stereo not given), the Potency is reported as inconclusive: 28.2 µM [inhibitor, single point].
For COc1ccc2nc(-c3cccc(NC(C)=O)c3)sc2c1, the Potency was inconclusive: 11.2 µM [inhibitor, partial curve, poor fit].
In the case of CCNC(=O)NCCCOc1cccc(CN2CCCCC2)c1, the Potency is reported as “inactive”.
In the case of COc1cc(C2OCC3C(c4ccc(OC5OC(CO)C(O)C(O)C5O)c(OC)c4)OCC23)ccc1O (stereo not given), the Potency is reported as inconclusive: 11.2 µM [inhibitor, single point].
In the case of CC1(C)O[C@H]2CC(=O)OC[C@]23[C@H]2CC[C@@]4(C)[C@H](c5ccoc5)OC(=O)[C@H]5O[C@]54[C@]2(C)C(=O)C[C@@H]13, the Potency is reported as “inactive”.
With C=C[C@@]1(C)C=C2C(=O)C(O)=C3[C@](C)(C(=O)O)CC[C@@H]4C[C@]34[C@]2(O)C(=O)C1 the Potency was inconclusive: 10 µM [inhibitor, partial curve, poor fit].
In the case of CCOCc1nc2c(N)nc3ccccc3c2n1CC(C)(C)O, the Potency is reported as “inactive”.
With COc1c2cc(c(O[C@@H]3O[C@H](CO)[C@@H](O)[C@H](O)[C@H]3O)c1OC)CCCCC(O)CCc1ccc(O)c-2c1 (stereo not given in full) the Potency was inconclusive: 8.91 µM [inhibitor, partial curve, poor fit].
For CCCn1c(-c2ccc(F)cc2)nc2c(NCC3CCCN3CC)nc(C)nc21 (stereo not given), the Potency was “inactive”.
For CCOC(=O)c1c(CNCc2ccccc2F)c2sc(C)cc2n1C, the Potency was “inactive”.
CC(=O)O[C@H]1C[C@@](O)(C(C)C)[C@@H]2[C@@H](OC(=O)c3ccc(O)cc3)CC(C)=CC[C@@]12C was tested, and the Potency was “inactive”.
With COc1cccc(C2=Nn3c(nnc3-c3cc(OC)ccc3OC)SC2)c1 the Potency was “inactive”.
In the case of COc1cccc(-c2csc(NC(=O)c3ccncc3NS(=O)(=O)c3ccc(C)cc3)n2)c1, the Potency is reported as “inactive”.
For OC[C@H]1O[C@@H](OCc2ccccc2)[C@H](O)[C@@H](O)[C@@H]1O, the Potency was inconclusive: 7.94 µM [inhibitor, full curve, poor fit].
In the case of CC(=O)O[C@@H]1[C@H](O)[C@@H](O[C@@H]2O[C@@H](C)[C@H](O[C@@H]3OC[C@@H](O)[C@H](O[C@@H]4OC[C@@H](O)[C@H](O)[C@H]4O)[C@H]3O)[C@@H](O[C@@H]3O[C@H](CO)[C@@H](O)[C@H](O)[C@H]3O)[C@H]2O)[C@H](OC(=O)[C@]23CCC(C)(C)C[C@H]2C2=CCC4[C@@]5(C)CC[C@H](O[C@@H]6O[C@H](C(=O)O)[C@@H](O)[C@H](O[C@@H]7OC[C@@H](O)[C@H](O)[C@H]7O)[C@H]6O[C@@H]6O[C@H](CO)[C@H](O)[C@H](O)[C@H]6O)[C@@](C)(C=O)C5CC[C@@]4(C)[C@]2(C)CC3)O[C@@H]1C (stereo not given in full), the activity change, negative = inhibition is reported as inactive: -8.36% [at 11.2 µM].
For C=C1C(=O)O[C@H]2CC(=C)[C@H]3CC[C@@](C)(O)[C@@H]3CC12 (stereo not given in full), the Potency was inconclusive: 22.4 µM [inhibitor, partial curve, poor fit].
COC(=O)C1=COC(O[C@@H]2O[C@H](CO)[C@@H](O)[C@H](O)[C@H]2O)/C(=C\COC(=O)c2ccc(OC3OC(CO)C(O)C(O)C3O)c(OC)c2)C1CC(=O)OCCc1ccc(O)cc1 (stereo not given in full) was tested, and the Potency was inconclusive: 3.55 µM [inhibitor, partial curve, poor fit].
With CC(=O)NC(C(=O)OC1CCC(C)(C)C2CC=C3C(=O)OCC3C12C)C(C)C (stereo not given) the Potency was “inactive”.
CC(=O)Nc1sc2c(c1-c1ccc(N[S+](C)(=O)[O-])cc1)CCNC2 was tested, and the Potency was inconclusive: 3.16 µM [inhibitor, full curve].
For CC1(C(=O)O)CC[C@]2(C(=O)OC3OC(CO)C(O)C(O)C3O)CC[C@]3(C)C(=CCC4[C@@]5(C)CC[C@H](OC6OCC(O)C(O)C6OC6OC(CO)C(O)C(O)C6O)C(C)(C)C5CC[C@]43C)C2C1 (stereo not given in full), the Potency was inconclusive: 11.2 µM [inhibitor, single point].
CCCC(=O)NCCc1csc(-c2ccc(Cl)cc2)n1 was tested, and the Potency was “inactive”.
For O=C(O[C@H]1[C@H](Oc2ccc(O)cc2CO)O[C@H](CO)[C@@H](O)[C@@H]1O)c1ccccc1, the Potency was inconclusive: 12.6 µM [inhibitor, single point].
With Oc1c(CNc2ccccc2)cc(COCc2ccccc2)c2cccnc12 the Potency was inconclusive: 35.5 µM [inhibitor, single point].
In the case of O=C(NCCc1nc2ccccc2n1CCO)C1CCCCC1, the Potency is reported as “inactive”.
CN1[C@@H]2CC[C@H]1CC(OC(=O)C(CO)c1ccccc1)C2 (stereo not given in full) was tested, and the Potency was “inactive”.
For O=S(=O)(Cc1ccccc1)Nc1ccc(-c2ccc3c(cnn3-c3ccc(F)cc3)c2)c(C(F)(F)F)c1, the Potency was “inactive”.
COc1cc(/C=C/C(=O)O[C@H]2[C@@H]3C=CO[C@@H](O[C@@H]4O[C@H](CO)[C@@H](O)[C@H](O)[C@H]4O)[C@@H]3[C@@]3(CO)O[C@@H]23)ccc1O was tested, and the Potency was inconclusive: 17.8 µM [inhibitor, single point].
With C=C1CC23CC(=O)C4C(CO)(CO)CCCC4(C)C2CCC1C3 (stereo not given) the Potency was “inactive”.
Cc1cc(C(=O)N2CCCCc3ccccc32)ccc1CNC(=O)N1CCC[C@H]1C(=O)N(C)C was tested, and the Potency was “inactive”.
CC(=O)c1c(C)cccc1O[C@@H]1O[C@H](CO)[C@@H](O)[C@H](O)[C@H]1O was tested, and the Potency was inconclusive: 10 µM [inhibitor, single point].
O=C(O)c1ccc(-c2noc(-c3ccccc3Cl)n2)cc1 was tested, and the Potency was inconclusive: 1.58 µM [inhibitor, full curve].
In the case of CC(C)C(NC(=O)c1ccc2ccccc2n1)C(=O)NC(CC(=O)O)C(=O)COc1c(F)cccc1F (stereo not given), the Potency is reported as “inactive”.
In the case of C[C@@H]1O[C@@H](O[C@H]2[C@H](OC(C#N)c3ccc(O)cc3)O[C@H](CO)[C@@H](O)[C@@H]2O)[C@H](O)[C@H](O)[C@H]1O (stereo not given in full), the activity change, negative = inhibition is reported as inconclusive: -30.1% [inhibitor] [at 28 µM].
In the case of COC(=O)C1=COC(O[C@@H]2O[C@H](CO)[C@@H](O)[C@H](O)[C@H]2O)/C(=C\COC(=O)/C=C/c2ccccc2)C1CC(=O)OCCc1ccc(O)cc1 (stereo not given in full), the Potency is reported as inconclusive: 8.91 µM [inhibitor, single point].
O=C(O)CC1(O)C(=O)Nc2ccccc21 (stereo not given) was tested, and the Potency was “inactive”.
C(#Cc1nc2ncccc2nc1OCCN1CCCC1)c1ccccc1 was tested, and the Potency was inconclusive: 25.1 µM [inhibitor, single point].
Potency is the fitted concentration of half-maximal effect; tags give direction and shape of the fitted curve.
